The values below come from ChEMBL document CHEMBL4888484, “Replenishing the malaria drug discovery pipeline: Screening and hit evaluation of the MMV Hit Generation Library 1 (HGL1) against asexual blood stage Plasmodium falciparum ,using a nano luciferase reporter read-out” (2022).

Structures are written as SMILES. About 540 (0.36%) of roughly 150,000 compounds showed an effect of 50% or more. The list shows a part of the results.

In this assay the test system is Plasmodium falciparum. Description: Primary screen in NF54 nanoGlo assay, in single point, at 2uM, 72h; a lower Z score goes with more inhibition. It counts as functional, Erythrocyte. As to conditions: timepoint 72 hour.
The % Inhibition is the change of the read-out against control, counted positive when it falls. Consider `CCc1nn(C)cc1NC(=O)NCC(=O)NCC1CC1`, for which the “% Inhibition” value is -5% and the Z score was determined as 0.52.

Turning to `O=C(NC1(C(F)F)CC1)c1ccccc1`, the “% Inhibition” value is -7% and the Z score was determined as 0.78.

With `O=C(NCCC1=CCCCC1)c1c[nH]c2ncccc12`, the “% Inhibition” value was -13% and the Z score was 1.3.

`CCN1CC(CN(C)C(=O)C2CCC(=O)N2)Oc2ccccc21` (stereo not given): the “% Inhibition” value is reported as -1% and the Z score came out at 0.21.

In the case of `CCCc1nc(-c2c(C)cc(C)nc2NC(=O)c2cc(C)ccc2C)no1`, the “% Inhibition” value is given as -4% and the Z score turned out to be 0.72.

For the molecule `COCCCn1ccc(Nc2ncc(C#N)cc2Cl)n1`, the “% Inhibition” value was found to be 4% and the Z score is -0.52.

Take `COC1(c2ccnn2C)CN(c2c(C)c(C)nc3ncnn23)C1`: the “% Inhibition” value is given as -1% and the Z score is listed as 0.2.

As to `O[C@H]1CC[C@@H](N[C@H]2CCc3c(Br)cccc32)CC1`, the “% Inhibition” value amounted to 6% and the Z score is given as -0.65.

For `CCc1n[nH]c2c1CN(Cc1noc([C@@H]3CCCO3)n1)CC2`, the “% Inhibition” value is recorded as 20% and the Z score is on record as -2.68.

In the case of `CC(C(=O)N1CCCCC1C(=O)O)n1cncn1` (stereo not given), the “% Inhibition” value is -16% and the Z score amounted to 1.65.

Consider `C[C@@H](c1ccon1)N(C)C(=O)c1coc(COc2ccccc2)n1`, for which the “% Inhibition” value is given as -2% and the Z score was 0.3.

As to `CC[C@H](C)c1nc(NC2CCC(NC(=O)c3ccc(Cl)cc3)CC2)c2cnn(-c3ccccc3Cl)c2n1` (stereo not given in full), the “% Inhibition” value is given as -12% and the Z score was determined as 1.27.

In the case of `CCOC(=O)c1sc(NC(=N)N)nc1C`, the “% Inhibition” value is -7% and the Z score was found to be 0.68.

Take `Cc1nn(C)cc1NC(=O)N[C@H]1CCCC[C@@H]1O`: the “% Inhibition” value turned out to be 34% and the Z score is listed as -4.34.

`O=C(CCc1ccncc1)NC1CCS(=O)(=O)CC1`: the “% Inhibition” value was -1% and the Z score is 0.09.

Consider `CC(C)Cc1cc(N2Cc3c[nH]nc3[C@@H](C)C2)ncn1`, for which the “% Inhibition” value is given as -3% and the Z score is 0.32.

Consider `Cc1cc(C[C@H](C)n2ccnc2-c2ccc(Cl)s2)[nH]n1`, for which the “% Inhibition” value was -14% and the Z score stood at 1.78.

As for `CC(C)OC1CCC(NC(=O)C2(C#N)CCCCC2)CC1` (stereo not given), the “% Inhibition” value is 5% and the Z score is given as -0.54.

For the molecule `Clc1c(CN[C@H]2CCc3ccccc32)sc2ccccc12`, the “% Inhibition” value is listed as -12% and the Z score was 1.35.

For the molecule `CN(C)c1ccc(NC(=O)[C@H]2C[C@@H]2OC(C)(C)C)cn1`, the “% Inhibition” value was 0% and the Z score amounted to 0.06.

In the case of `COC(=O)c1nc([C@@H]2CCCN2C(=O)c2ccnnc2)sc1C`, the “% Inhibition” value came to 1% and the Z score is -0.19.

Take `CCCC[C@H]1C(=O)N(C)CCN1C(=O)c1cnc(O)cn1`: the “% Inhibition” value is -10% and the Z score was found to be 1.86.

In the case of `Cc1cc2c(cc1C)CN(c1cccc(C(=O)NCC[C@H]3CCOC3)c1)C2`, the “% Inhibition” value was 4% and the Z score was -0.73.

For the molecule `Cc1cccc2[nH]c(COCC(=O)NCCc3cccnc3)nc12`, the “% Inhibition” value is -8% and the Z score came to 0.9.

Turning to `CC(=O)Nc1ccc(N2C(=O)CN(C(C)C)C2=O)c(C(F)(F)F)c1`, the “% Inhibition” value is listed as 7% and the Z score was -1.13.
